From PubChem BioAssay AID445 (National Center for Advancing Translational Sciences (NCATS), 2006)
The whole screen tested about 110,000 compounds, of which about 40 (0.04%) were called active. The shares of active, inactive and inconclusive entries below differ from those in the screen. Calls follow the shape of the dose curve; as a rule, active = well fitted curve in the direction sought with a large enough effect in the signal ratio (not every such curve was filed as active); inconclusive = small, poorly fitted or top-dose-only effect, or a change in a side signal; inactive = flat fitted curve, though single readings scatter; the % refers to the signal ratio. Potencies beside an inconclusive call are fits to weak or partial responses and may not hold up.
Potency is read from the fitted curve at half-maximal effect.

Experiment: IkB Signaling;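 as to IkBa stabilization activation: 0% = basal untreated cells and 100% = reference inhibitor full response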
Conditions: ABC-DLBCL IkBa-CBG/CBR dual luciferase ratio (green luciferase fused to IkBa over red control in OCI-Ly3 lymphoma cells), 4 h; IkBa stabilization activation: at 57.1 µM (top of the series), scaled: untreated 0%, proteasome inhibitor 100% unless noted
Procedure, shortened: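 Luminescence ratio of IκBα-fused green versus native red beetle luciferase in OCI-Ly3 cells, 4 h post-doxycycline with compound; red signal alone, scaled from basal (0%) to zero light (-100%), flagged nonspecific or cytotoxic effects.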
In the case of `Cc1ccc(Cl)cc1N1CCN(C(=O)C2CCN(Cc3nc(-c4cccc(Cl)c4)oc3C)CC2)CC1`, the IkBa stabilization activation is reported as inconclusive: -1.45% [signal inhibitor]. In the case of `CCc1nn2c(=O)cc(COC(=O)C(c3ccccc3)c3ccccc3)nc2s1`, the IkBa stabilization activation is reported as inconclusive: -1.8% [signal inhibitor]. For `Cc1cccc(-c2nc(SCC(=O)Nc3ccc4c(c3)OCCO4)c(-c3ccccc3)[nH]2)c1`, the IkBa stabilization activation was inconclusive: 8.19% [signal inhibitor]. For `Cc1cc(C)cc(N(CC(=O)NCc2ccccc2Cl)S(=O)(=O)c2c(C)noc2C)c1`, the IkBa stabilization activation was inconclusive: 6.32% [signal inhibitor]. With `CCOC(=O)Cn1c(=O)n(-c2ccccc2OC)c2nc(-c3ccccc3C)nc(C(N)=O)c21` the “IkBa stabilization activation” value was inactive: 0.888%. With `c1ccc(C2=NN[C@@H]3c4ccccc4-c4ccccc4N3C2)cc1` the IkBa stabilization activation was inactive: 0.413% [at 11.4 µM, scaled: untreated 0%, proteasome inhibitor 100%]. In the case of `O=C(COc1ccccc1)Nc1ccccc1C(=O)OCc1cc(=O)n2nc(C3CC3)sc2n1`, the IkBa stabilization activation is reported as inconclusive: 14.8% [signal inhibitor]. For `Cc1c(C(=O)N2CCC(C)CC2)c(S(=O)(=O)N2CCN(c3ccc(Cl)cc3)CC2)c(C)n1C`, the IkBa stabilization activation was inconclusive: 2.03% [signal inhibitor]. For `Cc1ccc(Cl)cc1N1CCN(C(=O)C2CCN(Cc3nc(-c4ccc(Cl)cc4)oc3C)CC2)CC1`, the IkBa stabilization activation was inconclusive: -2.07% [signal inhibitor]. For `CC(C)(C)OC(=O)N1CCC(c2c(C(=O)NC3CCCCC3)cnn2-c2cccc(Cl)c2)CC1`, the IkBa stabilization activation was inconclusive: 2.45% [signal inhibitor]. In the case of `Cn1nccc1C(=O)NCc1ccc2c(c1)CCN2C(=O)c1ccccc1`, the IkBa stabilization activation is reported as inconclusive: 2.01% [signal inhibitor]. For `O=c1cnnc(SCCc2ccccc2)[nH]1`, the “IkBa stabilization activation” value was inactive: 12.8%. For `Cc1[nH]c2ccccc2c1-c1cc(-c2cc(-c3c(C)[nH]c4ccccc34)nc(N)n2)nc(N)n1`, the IkBa stabilization activation was inactive: 1.16% [at 11.4 µM, scaled: untreated 0%, proteasome inhibitor 100%]. With `O=C(Cn1c(=O)oc2cc(S(=O)(=O)NC3CCCC3)ccc21)Nc1ccc(F)c(F)c1` the IkBa stabilization activation was inconclusive: 10% [signal inhibitor]. In the case of `CN1CCN(CN2C(=O)C3C4C=CC(C3C2=O)C2C3C(=O)N(CN5CCN(C)CC5)C(=O)C3C42)CC1` (configuration not stated), the IkBa stabilization activation is reported as inactive: 1.5% [at 11.4 µM, scaled: untreated 0%, proteasome inhibitor 100%]. With `Cc1cccc2cc3c(NC(=O)CC(C)C)nn(C)c3nc12` the “IkBa stabilization activation” value was inactive: -0.636%. With `O=c1[nH]c(CN2CCN(C/C=C/c3ccccc3)CC2)nc2cc(Cl)ccc12` the IkBa stabilization activation was inconclusive: 1.36% [signal inhibitor]. In the case of `COc1ccccc1CNC(=O)c1cnn2c(C)c(Cc3ccc(F)cc3)c(C)nc12`, the IkBa stabilization activation is reported as inconclusive: 3.86% [signal inhibitor]. With `Cc1ccc(-c2nc3cc(Cl)ccc3o2)cc1NC(=O)COc1ccc(F)cc1` the IkBa stabilization activation was inconclusive: 9.53% [signal inhibitor]. For `COc1ccc2c(c1OC)C(=O)OC2[C@H]1c2c(cc3c(c2OC)OCO3)CCN1C` (some centres not stated), the IkBa stabilization activation was “inactive”. With `CC(C)Oc1cc(O)c2c(c1)OCC=C2CCC(=O)O` the IkBa stabilization activation was inactive: -0.46% [at 11.4 µM, scaled: untreated 0%, proteasome inhibitor 100%]. With `CC(C)Cn1c(N)c(C(=O)COC(=O)C2CCCCC2)c(=O)n(C)c1=O` the IkBa stabilization activation was inconclusive: 4.15% [signal inhibitor]. In the case of `CC(C)CNS(=O)(=O)c1ccc(C(=O)Nc2ccc3c(c2)OCCO3)cc1`, the IkBa stabilization activation is reported as inconclusive: 1.2% [signal inhibitor]. For `CCOc1ccc(-c2nc(SCC(=O)Nc3ccc4c(c3)OCCO4)c(-c3ccc(F)cc3)[nH]2)cc1`, the IkBa stabilization activation was inconclusive: 18.1% [signal inhibitor]. With `CC(=O)N1CCCc2cc(S(=O)(=O)N3CCN(c4ccc(F)cc4)CC3)ccc21` the “IkBa stabilization activation” value was inactive: 2.56%. In the case of `COc1cccc(OC)c1C(=O)Nc1cccc(-c2nc3cc(C)cc(C)c3o2)c1`, the IkBa stabilization activation is reported as inconclusive: 11.4% [signal inhibitor]. In the case of `COc1ccc(NC(=O)c2noc3c2CSc2ccccc2-3)cc1Cl`, the IkBa stabilization activation is reported as inconclusive: 2.29% [signal inhibitor]. In the case of `Cc1ccc2[nH]c(=O)c(CN(Cc3nnnn3C3CCCC3)C3CCCCC3)cc2c1`, the “IkBa stabilization activation” value is reported as inactive: 1.89%. In the case of `O=C(Cn1nc(Cc2cccnc2)c2ccccc2c1=O)Nc1cccc(C(F)(F)F)c1`, the IkBa stabilization activation is reported as inconclusive: 3.24% [signal inhibitor]. In the case of `CCOc1ccccc1NC(=O)Cn1cnc2c(nnn2-c2cccc(OC)c2)c1=O`, the “IkBa stabilization activation” value is reported as inactive: -1.61%. In the case of `Cc1ccc(NC(=O)Cn2c(C)cc(C)c(C#N)c2=O)cc1F`, the IkBa stabilization activation is reported as inconclusive: 2.3% [signal inhibitor]. In the case of `Cc1nc2cnc(Nc3ccccc3)nc2n(Cc2cccs2)c1=O`, the IkBa stabilization activation is reported as inactive: -2.12% [at 11.4 µM, scaled: untreated 0%, proteasome inhibitor 100%]. With `CC(=O)c1cc2c(cc1NC(=O)c1cc(C)nn1-c1ccccc1)OCO2` the “IkBa stabilization activation” value was inactive: -2.55%. With `Cc1ccc2oc3c(c(=O)c2c1)C(c1cccc(Cl)c1)N(CCCN1CCOCC1)C3=O` (configuration not stated) the “IkBa stabilization activation” value was inactive: -1.37%. In the case of `COc1cccc2sc(Nc3nnc(-c4cccs4)o3)nc12`, the Potency is reported as inconclusive: 31.6 µM [falling, single point]. With `N#Cc1c(NC(=O)CSc2ncn(-c3ccccc3)n2)sc2c1CCCC2` the “IkBa stabilization activation” value was inactive: -2.43%. In the case of `O=C(COc1ccc(-n2cnnn2)cc1)NCCc1ccc(F)cc1`, the “IkBa stabilization activation” value is reported as inactive: -0.581%. For `Cn1c(CCN2CCCCC2)nc2cc(NS(=O)(=O)c3ccc(Cl)cc3)ccc21`, the Potency was inconclusive: 25.1 µM [signal inhibitor, partial curve]. For `Cc1ccc(NC(=O)CCNS(=O)(=O)c2cccc3nsnc23)cc1`, the IkBa stabilization activation was inconclusive: 9.57% [signal inhibitor]. For `CC1C=CCC2C(=O)N(c3cccc(C(=O)N4CCN(c5ccc(F)cc5)CC4)c3)C(=O)C12` (configuration not stated), the IkBa stabilization activation was inconclusive: 4.71% [signal inhibitor]. For `CN(CC(=O)Nc1ccc(F)cc1F)S(=O)(=O)c1ccc(C(=O)N2CCOCC2)s1`, the IkBa stabilization activation was inconclusive: 5.22% [signal inhibitor]. With `CCCCc1ccc(NC(=O)COc2cccc3c(=O)n(C)ccc23)cc1` the “IkBa stabilization activation” value was inactive: 0.322%. With `Cc1ccc2nc(CSc3nnc(NC(=O)COc4ccccc4)s3)cc(=O)n2c1` the IkBa stabilization activation was inconclusive: 4.16% [signal inhibitor]. With `CCOC(=O)c1c(C)c(-c2ccccc2)n(CC(=O)NCCc2ccc(C)cc2)c1C` the “IkBa stabilization activation” value was inactive: 0.315%. For `CCOC(=O)c1ccc(NC(=O)c2cc(=O)c3cc(CC)ccc3o2)cc1`, the “IkBa stabilization activation” value was inactive: -1.4%. With `CCN1CCC[C@@H]1CNC(=O)c1c(O)c(Cl)cc(Cl)c1OC` the “IkBa stabilization activation” value was inactive: 6.54%. For `NC(=O)c1c(NC(=O)CSc2nnc(Cc3ccccc3)n2Cc2ccco2)sc2c1CCC2`, the IkBa stabilization activation was inconclusive: 12.1% [signal inhibitor]. With `Cc1ccc(C)c(-c2nc3cc(N)ccc3o2)c1` the “IkBa stabilization activation” value was inactive: 1.61%. In the case of `COc1cccc(CNC(=O)C(NS(=O)(=O)c2ccc3nc(C)sc3c2)C(C)C)c1` (configuration not stated), the IkBa stabilization activation is reported as inconclusive: 1.09% [signal inhibitor]. For `Fc1ccc([C@H]2CCNC[C@H]2COc2ccc3c(c2)OCO3)cc1`, the IkBa stabilization activation was inconclusive: 1.96% [signal inhibitor]. For `Cc1ccc(C(CC(=O)Nc2cc(C)cc(C)c2)N2Cc3ccccc3C2=O)cc1` (configuration not stated), the IkBa stabilization activation was inconclusive: 0.5% [signal inhibitor]. With `N=c1c2c(-c3ccccc3)c(-c3ccccc3)n(Cc3ccco3)c2ncn1Cc1ccco1` the IkBa stabilization activation was inconclusive: -6.07% [signal inhibitor]. With `O=C(Nc1cccs1)Nc1ccccc1Cl` the “IkBa stabilization activation” value was inactive: 2.18%. For `CCS(=O)(=O)NCC(c1ccco1)N1CCN(c2ccc(OC)cc2)CC1` (configuration not stated), the IkBa stabilization activation was inconclusive: 2.18% [signal activator]. For `Cc1cc(/C=C\c2ccc3cc(N(C)C)ccc3[n+]2C)c(C)n1-c1ccccc1`, the IkBa stabilization activation was inconclusive: -1.7% [signal inhibitor] [at 25.6 µM, scaled: untreated 0%, proteasome inhibitor 100%]. In the case of `O=C(c1ccccc1)c1nnc(-c2ccncc2)o1`, the IkBa stabilization activation is reported as inconclusive: 5.55% [signal inhibitor]. For `COc1ccc(S(=O)(=O)N(C)Cc2nc(-c3cccc(C)c3)no2)cc1`, the IkBa stabilization activation was inconclusive: 0.235% [signal inhibitor]. For `CC(C)Cc1cc(C(=O)Nc2cc(Br)ccc2O)no1`, the Potency was inconclusive: 25.1 µM [rising, partial curve]. For `CC(=O)NC(CC(C)C)C(=O)NC(Cc1ccccc1)C(N)=O` (configuration not stated), the “IkBa stabilization activation” value was inactive: -0.962%. For `CS(=O)(=O)c1nc(-c2cccs2)cc(C(F)(F)F)n1`, the Potency was inconclusive: 3.98 µM [rising, partial curve]. For `CCc1ccc(NC(=O)N(Cc2ccc(C)cc2)Cc2cccn2-c2nnc(N3CCCC3=O)s2)cc1`, the IkBa stabilization activation was inconclusive: 2.09% [signal inhibitor]. With `Cc1nc(-c2ccc(F)cc2)sc1CCNC(=O)c1ccco1` the “IkBa stabilization activation” value was inactive: 0.0542%. In the case of `COC(=O)C1=C(C)N(C)C(C)=C(C(=O)OC)C1c1ccc(F)c(Br)c1`, the IkBa stabilization activation is reported as inconclusive: 5.63% [signal inhibitor]. With `CCc1ccc(CNC(=O)CCN2C(=O)COc3ccccc32)cc1` the IkBa stabilization activation was inconclusive: 0.414% [signal inhibitor]. For `CSc1ccc(CCNC(=O)C(C)n2c(C)c3cnn(-c4ccccc4)c(=O)c3c2C)cc1` (configuration not stated), the IkBa stabilization activation was inconclusive: 1.48% [signal inhibitor]. In the case of `COc1cc(OC)cc(C(=O)Nc2c(C(=O)Nc3ccc(F)cc3)oc3ccccc23)c1`, the IkBa stabilization activation is reported as inconclusive: 5.22% [signal inhibitor]. In the case of `Cc1c(N=Cc2nc3ccccc3n2C)c(=O)n(-c2ccccc2)n1C`, the “IkBa stabilization activation” value is reported as inactive: 1.29%.
